Source: PubChem BioAssay AID686979 (National Center for Advancing Translational Sciences (NCATS), 2013)
In all, about 420,000 compounds went through this assay and about 50,000 (12%) were called active. Inconclusive means that the source gave no clear call. Such entries were picked first, then a sample of the others. Calls come from the whole dose curve; as a rule, active = well fitted inhibition curve with a large enough effect; inconclusive = small, poorly fitted or top-dose-only effect; inactive = flat fitted curve, though single readings scatter. Potencies of inconclusive entries are left out as doubtful fits.

test: qHTS for Inhibitors of human tyrosyl-DNA phosphodiesterase 1 (TDP1): qHTS in cells in presence of CPT; details: chicken DT40 Tdp1-/-;hTDP1 cells + 20 nM CPT, ATP luminescence, 48 h; activity change, negative = growth inhibition: at 46.2 µM (top of the series) unless noted; note: nearly all actives have a fitted effect of over 55% in size
How it was run: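 Chicken DT40 Tdp1-/- cells complemented with human TDP1, 400 cells/well, exposed to compounds plus 20 nM camptothecin for at least 48 h at 37 C; viability read as ATP content by CellTiter-Glo luminescence.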
% is set by controls: 0 for no effect and ±100 for the full control effect; potency is the fitted concentration of half-maximal effect; tags give direction and shape of the fitted curve.

Row | Structure (SMILES) | Potency | activity change, negative = growth inhibition
1 | CCc1noc(C)c1C(=O)OCC(=O)c1ccc(NC(C)=O)cc1F | inconclusive [inhibitor, single point] | 
2 | CCOC(=O)C1=C(CC)Nc2ccccc2N=C1NC(=O)c1ccc(S(=O)(=O)N2CCOCC2)cc1 | inconclusive [inhibitor, single point] | 
3 | CCN(CC)c1ccc(NC(=O)CCNS(=O)(=O)c2ccc3c(c2)CCC(=O)N3)c(C)c1 | inconclusive [inhibitor, single point] | 
4 | O=C(NN1CCCCC1)c1cnn2c(C(F)F)cc(-c3ccccc3)nc12 | inconclusive [inhibitor, single point] | 
5 | Cc1ccc(C(O)(c2ccccc2)c2ccccc2C(C)N(C)C)c(C)c1 (stereo not drawn) | inconclusive [inhibitor, single point] | 
6 | Cc1ccccc1N1CCN(CCCOc2ccc3c(C)cc(=O)oc3c2)CC1 | inconclusive [inhibitor, single point] | 
7 | COc1ccc(N(C(=O)Cn2nnc(-c3ccc(C)o3)n2)C(C(=O)NC2CCCC2)c2ccncc2)cc1 (stereo not drawn) | inactive | 
8 | Cc1cc(NS(=O)(=O)c2ccc(NC(=O)/C=C/c3cccc(Cl)c3)cc2)no1 | inactive | 
9 | O=C(C1CC(=O)N(C2CCCC2)C1)N1CCN(c2cccc(C(F)(F)F)c2)CC1 (stereo not drawn) | active: 14.6 µM | 
10 | O=C(CCc1nc2ccccc2n1-c1ccccc1)NCCO | inactive | 
11 | CC(=O)c1ccc(OCC(=O)Nc2ccccc2N2CCCC2)cc1 | inconclusive [inhibitor, partial curve, poor fit] | 
12 | Cc1cccc(C)c1NC(=O)C(c1ccccc1F)n1c(=O)c(-c2ccco2)nc2ccccc21 (stereo not drawn) | inconclusive [inhibitor, single point] | 
13 | Cc1ccc(N2C(=O)CC(Sc3nc4ccccc4o3)C2=O)cc1Cl (stereo not drawn) | active: 4.11 µM | 
14 | Cc1ccccc1NC(=O)CSc1[nH]c(=O)cc(C)c1C#N |  | inconclusive: -32.3% [inhibitor]
15 | CN1CCC(Oc2ccc(Sc3ccccc3)cc2)CC1 | inconclusive [inhibitor, single point] | 
16 | CN(C)c1ccc(N=Nc2ccccc2C(=O)OCC(=O)N2CCCC2)cc1 | inconclusive [inhibitor, single point] | 
17 | COc1ccc(C2CC(c3ccccc3)=NN2S(=O)(=O)c2ccccc2)c(OC)c1 (stereo not drawn) | inconclusive [inhibitor, single point] | 
18 | COc1cccc(OCc2cc(C(=O)NCc3ccc4c(c3)OCO4)no2)c1 | inconclusive [inhibitor, single point] | 
19 | Cc1cccc(NC(=O)c2cc(S(=O)(=O)N3CCc4ccccc43)cn2C)c1 | inactive | 
20 | Cc1c(-c2csc(N)n2)cnn1C | inconclusive [inhibitor, single point] | 
21 | O=C(Nc1nc(-c2ccccc2)cs1)c1cccc([N+](=O)[O-])c1 | inconclusive [inhibitor, single point] | 
22 | Cc1ccc(N2CCN(C(=O)c3cccs3)CC2)cc1C | inactive | 

Row | Structure (SMILES) | Potency | activity change, negative = growth inhibition
23 | CCc1ccccc1NC(=O)CSCc1cnn(-c2ccccc2)c1-n1cccc1 | inconclusive [inhibitor, single point] | 
24 | Cc1ccc(Cn2cc(C(=O)c3ccc(F)cc3)c(=O)c3cc4c(cc32)OCCO4)cc1 | inconclusive [inhibitor, single point] | 
25 | COc1ccc(N2CC(C(=O)NCc3n[nH]c(=O)c4ccccc34)CC2=O)cc1 (stereo not drawn) | inactive | 
26 | CCCCN(C(=O)Cn1ncc(Cl)c(Cl)c1=O)c1c(N)n(CC(C)C)c(=O)[nH]c1=O | inconclusive [inhibitor, single point] | 
27 | N#Cc1ccccc1NC(=O)c1ccc2c(Cl)c3c(nc2c1)CCCC3 | inconclusive [inhibitor, single point] | 
28 | CCOc1ccccc1CNCCNC(=O)c1nonc1N | inconclusive [inhibitor, single point] | 
29 | CCOC(=O)c1cc2c(c(CCO)n1)[C@H](CCO)N(S(=O)(=O)C(C)(C)C)C2 | inactive | 
30 | Cc1ccc(C2=C(O)C(=O)C(c3ccc(C)cc3)=C(O)C2=O)cc1 | inconclusive [inhibitor, single point] | 
31 | Cc1ccc(NC(=O)c2ncn(CCCN3CCN(c4ccccn4)CC3)n2)cc1C | inconclusive [inhibitor, single point] | 
32 | Cc1nn2c(N)c(-c3ccccc3)cnc2c1-c1ccc(Cl)cc1 | active: 16.4 µM | 
33 | CCN1CCN(c2sc(S(C)(=O)=O)nc2S(=O)(=O)c2ccc(C)cc2)CC1 | inconclusive [inhibitor, single point] | 
34 | CSc1ccc(CN2CCN(S(=O)(=O)Cc3ccccc3)CC2)cc1 | inconclusive [inhibitor, single point] | 
35 | Cc1ccc(S(=O)(=O)N2CCC(C(=O)NNC(=O)c3ccncc3)CC2)cc1 | inactive | 
36 | CCCc1nnc(NC(=O)CCC(=O)N2CCN(Cc3ccc(Cl)cc3)CC2)s1 | active: 16.4 µM | 
37 | COc1cccc(C(=O)OCC(=O)NC23CC4CC(CC(C4)C2)C3)c1 | inactive | 
38 | CCOc1ccc(C(=O)OCC(=O)NC2CCCCCCC2)cc1 | inconclusive [inhibitor, single point] | 
39 | COc1cc2c(cc1OC)C(COc1ccc(F)cc1)N(C(=O)c1ccco1)CC2 (stereo not drawn) | inconclusive [inhibitor, single point] | 
40 | O=C(COC(=O)c1ccc(Cl)c(S(=O)(=O)N2CCCC2)c1)NCc1ccccc1 | inconclusive [inhibitor, single point] | 
41 | Cc1ccc(C)c(C(O)c2ncc(-c3ccccc3Cl)[nH]2)c1 (stereo not drawn) | inconclusive [inhibitor, single point] | 
42 | COc1cc(OC)c(NC(=O)CC(c2cccs2)N2Cc3ccccc3C2=O)cc1Cl (stereo not drawn) | active: 23.1 µM | 
43 | Cc1ccc2c(c1)c1c(c(=O)n(-c3ccccc3C)c(=O)n1CC(=O)N1CCCC1)n2C | inconclusive [inhibitor, single point] | 
